Reference: the supplement of paper PMC8728848
The list shows a part of the results.

Assays:
Assay in all cases: glycan array binding signal (z-score within array); higher = stronger binding
Settings in all cases: glycan notation: IUPAC condensed, linker removed; mutation: R74S
[1] = biological target: Fuc(a1-2)Gal
In short: (§1)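 From the Consortium for Functional Glycomics database, 3228 arrays were curated, keeping only those whose protein sequence was available. Binding is given as a within-array Z-score averaged across arrays sharing a protein sequence and across linkers. Negative Z-scores can be read as non-binding.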

[2] = biological target: Fuc(a1-2)Gal(b1-3)GalNAc
In short: as §1

[3] = biological target: Fuc(a1-2)Gal(b1-3)GalNAc(a1-3)[Fuc(a1-2)]Gal(b1-4)Glc
In short: as §1

[4] = biological target: Fuc(a1-2)Gal(b1-3)GalNAc(a1-3)[Fuc(a1-2)]Gal(b1-4)GlcNAc
In short: as §1

[5] = biological target: Fuc(a1-2)Gal(b1-3)GalNAc(b1-3)Gal
In short: as §1

[6] = biological target: Fuc(a1-2)Gal(b1-3)GalNAc(b1-3)Gal(a1-4)Gal(b1-4)Glc
In short: as §1

[7] = biological target: Fuc(a1-2)Gal(b1-3)GalNAc(b1-4)[Neu5Ac(a2-3)]Gal(b1-4)Glc
In short: as §1

[8] = biological target: Fuc(a1-2)Gal(b1-3)GlcNAc
In short: as §1

[9] = biological target: Fuc(a1-2)Gal(b1-3)GlcNAc(b1-2)Man(a1-3)[Fuc(a1-2)Gal(b1-3)GlcNAc(b1-2)Man(a1-6)]Man(b1-4)GlcNAc(b1-4)GlcNAc
In short: as §1

[10] = biological target: Fuc(a1-2)Gal(b1-3)GlcNAc(b1-2)Man(a1-3)[Fuc(a1-2)Gal(b1-3)GlcNAc(b1-2)Man(a1-6)]Man(b1-4)GlcNAc(b1-4)[Fuc(a1-6)]GlcNAc
In short: as §1

[11] = biological target: Fuc(a1-2)Gal(b1-3)GlcNAc(b1-3)Gal(b1-4)Glc
In short: as §1

[12] = biological target: Fuc(a1-2)Gal(b1-3)GlcNAc(b1-3)GalNAc
In short: as §1

[13] = biological target: Fuc(a1-2)Gal(b1-3)GlcNAc(b1-3)[Fuc(a1-2)Gal(b1-3)GlcNAc(b1-6)]GalNAc
In short: as §1

[14] = biological target: Fuc(a1-2)Gal(b1-3)GlcNAc(b1-3)[Gal(b1-4)GlcNAc(b1-6)]Gal(b1-4)Glc
In short: as §1

[15] = biological target: Fuc(a1-2)Gal(b1-3)GlcNAc(b1-3)[Neu5Ac(a2-6)Gal(b1-4)GlcNAc(b1-6)]Gal(b1-4)Glc
In short: as §1

[16] = biological target: Fuc(a1-2)Gal(b1-3)GlcNAc6S
In short: as §1

[17] = biological target: Fuc(a1-2)Gal(b1-3)[Fuc(a1-4)]GlcNAc
In short: as §1

[18] = biological target: Fuc(a1-2)Gal(b1-3)[Fuc(a1-4)]GlcNAc(b1-2)Man(a1-3)[Fuc(a1-2)Gal(b1-3)[Fuc(a1-4)]GlcNAc(b1-2)Man(a1-3)]Man(b1-4)GlcNAc(b1-4)GlcNAc
In short: as §1

[19] = biological target: Fuc(a1-2)Gal(b1-3)[Fuc(a1-4)]GlcNAc(b1-2)Man(a1-3)[Fuc(a1-2)Gal(b1-3)[Fuc(a1-4)]GlcNAc(b1-2)Man(a1-6)]Man(b1-4)GlcNAc(b1-4)[Fuc(a1-6)]GlcNAc(b1-4)[Fuc(a1-6)]GlcNAc
In short: as §1

[20] = biological target: Fuc(a1-2)Gal(b1-3)[Fuc(a1-4)]GlcNAc(b1-3)[Fuc(a1-3)[Gal(b1-4)]GlcNAc(b1-6)]Gal(b1-4)Glc
In short: as §1

[21] = biological target: Fuc(a1-2)Gal(b1-3)[Fuc(a1-4)]GlcNAc(b1-3)[Gal(b1-4)GlcNAc(b1-6)]Gal(b1-4)Glc
In short: as §1

[22] = biological target: Fuc(a1-2)Gal(b1-4)Fuc(a1-3)]GlcNAc(b1-2)Man(a1-3)[Fuc(a1-2)Gal(b1-4)[Fuc(a1-3)]GlcNAc(b1-2)Man(a1-6)]Man(b1-4)GlcNAc(b1-4)GlcNAc
In short: as §1

[23] = biological target: Fuc(a1-2)Gal(b1-4)Glc
In short: as §1

[24] = biological target: Fuc(a1-2)Gal(b1-4)Glc6S
In short: as §1

[25] = biological target: Fuc(a1-2)Gal(b1-4)GlcNAc
In short: as §1

[26] = biological target: Fuc(a1-2)Gal(b1-4)GlcNAc(b1-2)Man
In short: as §1

[27] = biological target: Fuc(a1-2)Gal(b1-4)GlcNAc(b1-2)Man(a1-3)[Fuc(a1-2)Gal(b1-4)GlcNAc(b1-2)Man(a1-6)]Man(b1-4)GlcNAc(b1-4)GlcNAc
In short: as §1

[28] = biological target: Fuc(a1-2)Gal(b1-4)GlcNAc(b1-2)Man(a1-3)[Fuc(a1-2)Gal(b1-4)GlcNAc(b1-2)Man(a1-6)]Man(b1-4)GlcNAc(b1-4)[Fuc(a1-6)]GlcNAc
In short: as §1

[29] = biological target: Fuc(a1-2)Gal(b1-4)GlcNAc(b1-2)[Fuc(a1-2)Gal(b1-4)GlcNAc(b1-4)]Man(a1-3)[Fuc(a1-2)Gal(b1-4)GlcNAc(b1-2)Man(a1-6)]Man(b1-4)GlcNAc(b1-4)GlcNAc
In short: as §1

[30] = biological target: Fuc(a1-2)Gal(b1-4)GlcNAc(b1-3)Gal(b1-4)GlcNAc
In short: as §1

B1: Gal 7 (Homo sapiens) (protein)
chain: MSNVPHKSSLPEGIRPGTVLRIRGLVPPNASRFHVNLLCGEEGGSDAALHFNPRLDTSEVVFNSKEGGSWGREESGPGVPFGRGQPFEVLIIASDDGFKAVVGDAQYHHFRHRLPLARVRLVEVGGDVQLDSVRIF
glycan array binding signal (z-score) [1]: 0.285 | glycan array binding signal (z-score) [2]: -0.08 | glycan array binding signal (z-score) [3]: -0.294 | glycan array binding signal (z-score) [4]: -0.115 | glycan array binding signal (z-score) [5]: -0.319 | glycan array binding signal (z-score) [6]: -0.503 | glycan array binding signal (z-score) [7]: -0.204 | glycan array binding signal (z-score) [8]: -0.384 | glycan array binding signal (z-score) [9]: 1.48 | glycan array binding signal (z-score) [10]: -0.057 | glycan array binding signal (z-score) [11]: -0.429 | glycan array binding signal (z-score) [12]: -0.157 | glycan array binding signal (z-score) [13]: 0.182 | glycan array binding signal (z-score) [14]: -0.088 | glycan array binding signal (z-score) [15]: 0.022 | glycan array binding signal (z-score) [16]: 0.152 | glycan array binding signal (z-score) [17]: 0.245 | glycan array binding signal (z-score) [18]: 1.84 | glycan array binding signal (z-score) [19]: 0.897 | glycan array binding signal (z-score) [20]: -0.215 | glycan array binding signal (z-score) [21]: 0.211 | glycan array binding signal (z-score) [22]: 2.8 | glycan array binding signal (z-score) [23]: -0.305 | glycan array binding signal (z-score) [24]: -0.447 | glycan array binding signal (z-score) [25]: -0.214 | glycan array binding signal (z-score) [26]: 0.542 | glycan array binding signal (z-score) [27]: 0.098 | glycan array binding signal (z-score) [28]: 1.07 | glycan array binding signal (z-score) [29]: 0.518 | glycan array binding signal (z-score) [30]: -0.254
